{"source": "ChEMBL document CHEMBL4888484", "about": "“Replenishing the malaria drug discovery pipeline: Screening and hit evaluation of the MMV Hit Generation Library 1 (HGL1) against asexual blood stage Plasmodium falciparum ,using a nano luciferase reporter read-out” (2022)", "note": "The campaign covered roughly 150,000 compounds. About 540 (0.36%) showed an effect of 50% or more. This is one part of the list.", "data": [{"test_system": "Plasmodium falciparum", "experiment": "Primary screen in NF54 nanoGlo assay, in single point, at 2uM, 72h; a lower Z score goes with more inhibition", "assay_type": "functional, Erythrocyte", "details": "timepoint 72 hour", "units": {"% Inhibition": "%"}, "values": [{"smiles": "CCc1ncc(C(=O)NCc2cnc(C)cn2)cn1", "% Inhibition": 1, "Z score": -0.14}, {"smiles": "Cc1cc(C(=O)N2Cc3cncnc3C2)c(C)o1", "% Inhibition": -8, "Z score": 1.3}, {"smiles": "Cc1ccc(NC(=O)c2nnn(CC(=O)Nc3nccs3)c2C)cc1F", "% Inhibition": 0, "Z score": 0.03}, {"smiles": "O=C1C[C@@H](c2ccccc2)N(C(=O)c2ccc3c(c2)OCC(=O)N3)CCN1", "% Inhibition": -3, "Z score": 0.37}, {"smiles": "CCCN(CC(=O)NC(=O)NCC)[C@@H](C)c1ccc(Cl)c(Cl)c1", "% Inhibition": -3, "Z score": 0.36}, {"smiles": "CC(C)c1nc(NC(=O)c2ccccc2OC2CCC2)n(C)n1", "% Inhibition": 2, "Z score": -0.28}, {"smiles": "N#Cc1nccnc1O[C@H]1CC[C@H](NC(=O)c2ccco2)CC1", "% Inhibition": -11, "Z score": 1.31}, {"smiles": "CN(C)[C@@H](CNC1Cc2ccccc2C1)c1ccco1", "% Inhibition": -7, "Z score": 1.45}, {"smiles": "COc1cccc(NC(=O)Nc2cc(C)cc(N3CCN(C)CC3)c2)c1", "% Inhibition": -2, "Z score": 0.15}, {"smiles": "O=C(Nc1cccc2[nH]ccc12)N1CCC[C@H]1c1cccs1", "% Inhibition": -7, "Z score": 0.95}, {"smiles": "CNC(=O)Cc1ccccc1NC(=O)[C@@H]1OCC[C@@H]1C(C)C", "% Inhibition": 3, "Z score": -0.3}, {"smiles": "O=C(NCc1nnc(C(=O)Nc2ccc(F)cc2)s1)Nc1ccc(Br)cc1F", "% Inhibition": 13, "Z score": -1.53}, {"smiles": "CCN(CCn1cccn1)Cc1cc2c(cc1Cl)OCO2", "% Inhibition": -12, "Z score": 1.32}, {"smiles": "COCCOc1ccccc1CN1CCN(C)[C@H](c2nc(C)no2)C1", "% Inhibition": -5, "Z score": 0.69}, {"smiles": "CC(C)(C)OC(=O)N1CCC2(CCC2=O)CC1", "% Inhibition": -4, "Z score": 0.5}, {"smiles": "Cc1cc(-c2c(C)sc(C)c2S(=O)(=O)N2CCN(c3cccc(Cl)c3)CC2)[nH]n1", "% Inhibition": -11, "Z score": 1.28}, {"smiles": "Cn1cc(CCNC(=O)[C@@H]2CC(c3ccc(Cl)cc3Cl)=NO2)cn1", "% Inhibition": -9, "Z score": 1.6}, {"smiles": "C[C@@H](CC#N)NC(=O)c1cnn(C(C)(C)C)c1", "% Inhibition": -1, "Z score": 0.23}, {"smiles": "Cc1noc(C)c1Cn1cccc1-c1nc(-c2ccc3c(c2)OCO3)no1", "% Inhibition": -1, "Z score": 0.28}, {"smiles": "O=C(c1cnn(-c2ncc3c(n2)-c2ccccc2CCC3)c1C1CC1)N1CCCC[C@@H]1CO", "% Inhibition": -15, "Z score": 1.89}, {"smiles": "CCc1ccncc1NS(=O)(=O)c1cn(C)nc1C1CCCC1", "% Inhibition": -17, "Z score": 3.42}, {"smiles": "CC(C)Cc1noc(CN(C)C[C@H]2CCOC2)n1", "% Inhibition": 0, "Z score": -0.05}, {"smiles": "CC(C)[C@H]1CN(Cc2ccncc2)C[C@@H]1NC(=O)N(C)C", "% Inhibition": -7, "Z score": 0.69}, {"smiles": "N#Cc1ccc(C2=CCN(C(=O)c3cncc(N4CCOCC4)c3)CC2)cc1", "% Inhibition": 11, "Z score": -1.13}, {"smiles": "CC(C)[C@H](Cn1ccnn1)NC(=O)c1ccc(Cl)s1", "% Inhibition": 15, "Z score": -1.98}, {"smiles": "COc1cccc(NC(=O)N2CC[C@H]3CC(=O)Nc4cccnc4OCC[C@H]3C2)c1", "% Inhibition": 26, "Z score": -2.96}, {"smiles": "NC(=O)c1cc(C(=O)NC2(c3c(Cl)cccc3Cl)CC2)co1", "% Inhibition": -1, "Z score": 0.16}, {"smiles": "O=C(NCC1CCN(c2cnccn2)CC1)Nc1cccs1", "% Inhibition": -9, "Z score": 1.49}, {"smiles": "COc1ccc(C2=NNC(c3ccc(Br)cc3)=Nc3ccc(F)cc32)cc1", "% Inhibition": -51, "Z score": 5.95}, {"smiles": "O=S(=O)(c1ccc(-c2cnc(C3CCC3)o2)s1)N1CCN(c2ccc(Cl)cc2)CC1", "% Inhibition": 6, "Z score": -0.72}, {"smiles": "CC[C@H](NS(=O)(=O)c1ccnn1CC)c1cc(C)ccn1", "% Inhibition": -11, "Z score": 0.94}, {"smiles": "CCC(=O)c1ccc(Oc2cc(C#N)c(C#N)cc2N2CCOCC2)cc1", "% Inhibition": -11, "Z score": 2.03}, {"smiles": "CC1(C)C(=O)NCCN1C(=O)c1cc(-c2ccc(F)cc2)on1", "% Inhibition": 12, "Z score": -1.42}, {"smiles": "C=CCC(O)(CC=C)CNC(=O)C[C@H](C)n1ccnc1", "% Inhibition": -4, "Z score": 0.61}, {"smiles": "CS(=O)(=O)N1CCC[C@H]1c1nncn1-c1ccccc1", "% Inhibition": 4, "Z score": -0.58}, {"smiles": "CCc1ncnc(NCCc2nccs2)c1F", "% Inhibition": -4, "Z score": 0.4}, {"smiles": "CCCn1nc(C)c(CNC(=O)c2cnc[nH]2)c1C", "% Inhibition": -13, "Z score": 1.74}, {"smiles": "C[C@@H]1CN(C[C@@H]2CN(C(=O)c3cncc(Cl)c3)C[C@@H]2CO)C[C@H](C)O1", "% Inhibition": -5, "Z score": 0.73}, {"smiles": "COC(=O)[C@@H](C)NCc1cccc(C#N)c1", "% Inhibition": -9, "Z score": 1.25}, {"smiles": "Cn1cc(C(C)(O)CNC(c2ccccc2)c2ccc(F)cn2)cn1", "note": "(stereo unspecified)", "% Inhibition": -6, "Z score": 1.07}, {"smiles": "C=CCC[C@H](O)CN(Cc1ccccc1)Cc1c(C)nn(-c2ccccc2)c1Oc1ccc(OC)cc1", "% Inhibition": 8, "Z score": -1.01}, {"smiles": "Cc1cccc(OCc2nc(C)c(C(=O)NCc3ccc4c(c3)OCO4)s2)c1", "% Inhibition": 1, "Z score": -0.06}, {"smiles": "CC(C)c1ncc(CN2CCc3[nH]ncc3C2)s1", "% Inhibition": -3, "Z score": 0.6}]}]}
